In article PMC6919601, “Identification of Plasmodium dipeptidyl aminopeptidase allosteric inhibitors by high throughput screening” (PLoS ONE, 2019):
Screen size: about 110,000 compounds; about 230 (0.21%) showed an effect of 50% or more. The list shows a part of the results.

These compounds were tested against DPAP1 (Plasmodium falciparum, UniProt Q8IIJ9) (assay: primary screen, percent inhibition; read by cleavage of a fluorogenic dipeptide substrate; higher = more effect of the substance).
Parameters: species or system P. falciparum D10 trophozoite lysates; single well
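Further: 30 min substrate incubation versus DMSO and 10 µM JCP410 controls.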

Chain of DPAP1 (Q8IIJ9 whole entry, looked up): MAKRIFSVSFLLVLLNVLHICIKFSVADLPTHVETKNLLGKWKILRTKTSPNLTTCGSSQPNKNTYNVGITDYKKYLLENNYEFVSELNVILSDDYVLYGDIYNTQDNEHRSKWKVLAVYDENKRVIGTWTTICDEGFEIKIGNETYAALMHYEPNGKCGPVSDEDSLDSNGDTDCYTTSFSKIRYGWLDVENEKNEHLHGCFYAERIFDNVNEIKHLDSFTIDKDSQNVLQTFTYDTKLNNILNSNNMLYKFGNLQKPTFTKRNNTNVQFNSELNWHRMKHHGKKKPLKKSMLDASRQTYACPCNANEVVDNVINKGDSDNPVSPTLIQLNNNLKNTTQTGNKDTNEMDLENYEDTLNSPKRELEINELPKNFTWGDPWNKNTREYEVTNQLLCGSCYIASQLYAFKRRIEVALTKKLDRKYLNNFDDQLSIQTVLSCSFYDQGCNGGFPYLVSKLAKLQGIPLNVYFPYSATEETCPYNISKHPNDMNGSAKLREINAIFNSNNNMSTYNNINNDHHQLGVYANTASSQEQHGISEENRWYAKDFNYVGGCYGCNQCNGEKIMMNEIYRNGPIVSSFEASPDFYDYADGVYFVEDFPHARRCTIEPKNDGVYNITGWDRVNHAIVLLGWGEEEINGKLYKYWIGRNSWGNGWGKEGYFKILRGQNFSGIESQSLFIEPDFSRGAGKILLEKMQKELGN

| Compound | % Inhibition @ 10 uM [%] |
| --- | --- |
| O=C(O)C1CC(O)CN1Cc1ccccc1 (stereo not shown) | 3.01 |
| O=C(NCc1cccc(Cl)c1)c1ccc(-n2cnc3cccnc32)cc1 | 3.54 |
| COc1ccccc1CC(=O)N(Cc1nc(-c2cccc(C)c2)no1)C(C)C | -8.56 |
| CCc1n(CC(O)COc2ccccc2OC)c2ccccc2[n+]1C (stereo not shown) | 13.1 |
| COc1cccc(N(CC(=O)Nc2ccccc2Br)S(=O)(=O)c2ccccc2)c1 | -1.43 |
| CCCc1nc2nc(C)c(NS(=O)(=O)c3ccc(Br)cc3)c(O)n2n1 | 2.5 |
| C=CCc1cc(/C=C2/SC(NC(C)=O)=NC2=O)cc(OCC)c1O | 2.63 |
| CCCCSc1nnc(NC(=O)c2cc(=O)c3ccccc3o2)s1 | 0.248 |
| CC(C)(C)c1[nH]nc2c1C(c1ccccc1)C(C#N)=C(N)O2 (stereo not shown) | -4.41 |
| NC(=O)c1c(NC(=O)Cn2c(=O)oc3ccccc32)sc2c1CCCC2 | -2.77 |
| O=C(Cn1sc2ccccc2c1=O)NCc1cccs1 | -10.4 |
| N#Cc1cc2c(nc1SCCCN1C(=O)c3ccccc3C1=O)CCC2 | 1.57 |
| CCc1ccc(N2C(=O)c3ccc(NC(C)=O)cc3C2=O)cc1 | 0.431 |
| O=C(Cn1c(C(F)(F)F)nc2ccccc21)NCCc1ccccc1 | 2.99 |
| CCOc1cc2c(cc1/C=C(\C#N)c1cccc(C(F)(F)F)c1)OCO2 | 4.85 |
| Cc1ccccc1OCC(=O)Nc1cccc2ccccc12 | -4.06 |
| O=C(Cc1ccc(Br)cc1)N1CCN(c2ccc(F)cc2)CC1 | -1.36 |
| COc1ccc(OC)c(CCNC(=O)C(C)n2nc(C)c3c(C)n(-c4ccccc4)nc3c2=O)c1 (stereo not shown) | 2.65 |
| COc1ccc(C2C(=O)N(CCc3ccccc3)CC(=O)N2C2CCCCCCC2)cc1 (stereo not shown) | -2.26 |
| Cc1cccc(Cc2c(C)nc3nc(SCC(=O)NCc4ccco4)nn3c2C)c1 | -0.363 |
| CCN(CC)c1ccc(C2C(C(=O)OC)=C(C)N=C(C)/C2=C(/O)OC)cc1 (stereo not shown) | 0.392 |
| CC(=O)N1CN(C2CC(C)(C)NC(C)(C)C2)Cc2c1sc1c2CCCC1 | -2.05 |
| Fc1ccccc1OCCCCN1CCCCC1 | -4.58 |
| C=CCN1C(=O)N/C(=C/c2cc(Cl)c(O)c(OC)c2)C1=O | -3.29 |
| Cc1ccc(NC(=O)COc2ccc(Br)cc2)c(Br)c1 | 7.39 |

| Compound | % Inhibition @ 10 uM [%] |
| --- | --- |
| CN(C)CCCN(C(=O)c1ccc(Cl)s1)c1nc2cc3c(cc2s1)OCO3 | -4.05 |
| CCN1C(=O)C(=CNc2ccccc2-c2ccccc2)C(=O)N(CC)C1=O | -2.87 |
| CCOC(=O)c1c(S(=O)(=O)NCCc2ccc(C)cc2)c(C)n(C)c1C | 5.01 |
| Cc1ccc(S(=O)(=O)NCc2ccc(C(=O)NC(C)c3ccc4c(c3)OCCO4)cc2)cc1 (stereo not shown) | 11.1 |
| O=C(CNC(=O)Cn1ccc2ccccc2c1=O)NCc1ccc(F)cc1 | -3.27 |
| COc1cccc(-c2[nH]c3c(C#N)cnn3c2NCCC(C)C)c1 | 76.4 |
| CCCn1c2ccccc2c2cnn(CC(=O)N(CCCOCC)Cc3ccco3)c(=O)c21 | 3.72 |
| CSc1nc2n(n1)C(c1ccc(Cl)cc1)C1=C(O)CC(C)(C)CC1=N2 (stereo not shown) | -0.68 |
| Cc1c(C(=O)/C=C/c2ccc(Br)cc2)c2cc(O)ccc2n1C | -0.687 |
| Cc1nnc2[nH]c(=O)n(C)c(=O)c2n1 | 0.569 |
| CCC(Sc1nc(O)c(C#N)c(-c2ccc(OC)cc2)n1)C(=O)Nc1cc(C)on1 (stereo not shown) | -4.12 |
| O=c1ccc(=O)n(CN2CCOCC2)[nH]1 | -4.03 |
| NS(=O)(=O)c1ccc(Nc2nc(-c3cccs3)cs2)cc1 | -1.66 |
| CN1CCN(Cc2ccc([N+](=O)[O-])s2)CC1 | 4.81 |
| COc1cccc(C(=O)N2CCN(c3ccccc3)CC2)c1 | -0.0947 |
| Cc1ccc(OCCn2nnc3sc4c(c3c2=O)CCCC4)cc1 | 0.758 |
| CC1CCc2c(sc(NC(=O)c3cccc(C(=O)O)c3)c2C(N)=O)C1 (stereo not shown) | 0.205 |
| CCOC(=O)c1c(C)n(-c2ccc(C)cc2)c2ccc(OCC(O)Cn3ccnc3)cc12 (stereo not shown) | 1.63 |
| CC(=O)c1cccc(-c2cccc(C(=O)N[C@@H](CC(C)C)C(=O)NCC#N)c2)c1 | -5.2 |
| COc1ccc(CN2CCN(C(=O)C3=C(C)C(=O)OC34CCCCC4)CC2)c(OC)c1OC | -8.69 |
| O=C1c2ccccc2C(=O)c2cc(OCC(O)Cn3cnc4ccccc43)ccc21 (stereo not shown) | -1.6 |
| O=c1cccc2n1C[C@H]1C[C@@H]2CN(Cc2ccccc2F)C1 | -1.85 |
| Cc1nn(-c2ccccc2)c2c1N(CCCC(=O)NC1CCCCC1)C(=O)CS2 | -3.75 |
| Oc1nc(SCc2cccc(F)c2)nc2c1cnn2-c1ccccc1 | -3.35 |
| CCN(CC)CC(=O)N1CCN(C(=O)CN(CC)CC)CC1 | -3.16 |

| Compound | % Inhibition @ 10 uM [%] |
| --- | --- |
| Cc1cc(C)n(-c2cccc(Cl)c2)c(=O)c1C(=O)O | -12.1 |
| CCOC(=O)C1=C(C)N(C)C(=O)NC1c1ccccc1OCC (stereo not shown) | -3.14 |
| COc1ccc(S(=O)(=O)N[C@@H](CC(C)C)C(=O)O)cc1 | -7.23 |
| O=C(C1CCCN(c2nc3ccccc3n3cccc23)C1)N1CCN(c2ccccn2)CC1 (stereo not shown) | 10 |
| O=c1oc2ccccc2cc1-c1c(O)nc2ccccc2c1O | -3.74 |
| Cc1c(Nc2nc3ccccc3nc2NS(=O)(=O)c2ccccc2)c(=O)n(-c2ccccc2)n1C | -8.11 |
| COc1ccc(/C=C2\SC(=S)N(CC(=O)Nc3ccccc3)C2=O)cc1 | 2.86 |
| O=C(NCC1COc2ccccc2O1)C1C2C=CC3(CN(Cc4ccccc4Cl)C(=O)C13)O2 (stereo not shown) | 1.83 |
| Cc1ccc(-c2nc(CSc3nc4cccnc4[nH]3)c(C)o2)cc1 | 7.01 |
| Cc1ccc(NC(=O)CN2CCN(Cc3ccccc3)CC2)cc1Br | -3.25 |
| NC(=O)c1ccccc1NS(=O)(=O)c1ccc(Cl)cc1 | 2.39 |
| CCN(CC)CCNC(=O)CSc1nc2nc(C)c(Cc3ccccc3C)c(C)n2n1 | -4.23 |
| Cc1cc(C)c2c3c(sc2n1)C1(CCC2(CC1)OCCO2)C(C#N)=C(N)O3 | -2.28 |
| CS(=O)(=O)CCC(C(=O)N1CCN(Cc2ccccc2)CC1)N1Cc2ccccc2C1=O (stereo not shown) | -0.234 |
| CC(C)NC1=N/C(=C\c2ccco2)C(=O)N1c1ccccc1 | -6.17 |
| Cc1nnn(C23CC4CC(CC(C(=O)NCc5ccccc5)(C4)C2)C3)n1 | -2.78 |
| COc1cc2c(cc1OC)C(c1cc(Br)ccc1O)NCC2 (stereo not shown) | -2.59 |
| O=C1Nc2ccc(Br)cc2C1(O)Cc1ccccn1 (stereo not shown) | 2.09 |
| Clc1ccc(C2NCCc3c2[nH]c2ccccc32)c(Cl)c1 (stereo not shown) | 3.1 |
| COc1cc2c(cc1OC)C(c1ccccc1Cl)CC(=O)N2 (stereo not shown) | -1.98 |
| CCOc1ccc(NC(=O)COc2ccc(Cl)cc2C)cc1 | -9.81 |
| CC(=O)c1ccc(/C=C/C(=O)O)o1 | 26.5 |
| CCOc1ccc(-c2nonc2NC(=O)c2cccs2)cc1OCC | -5.08 |
| Cn1nc(C(=O)N2CCC(Cc3ccccc3)CC2)c2c1-c1ccccc1S(=O)(=O)C2 | -4.78 |
| CCOc1cccc(C2C(C#N)=C(N)Oc3cc(C)nc(O)c32)c1OCC (stereo not shown) | -3.63 |

| Compound | % Inhibition @ 10 uM [%] |
| --- | --- |
| NS(=O)(=O)c1ccc(NC(=O)CCC2CCCCC2)cc1 | 0.316 |
| CC12CN(Cc3ccccc3Br)CC(C)(CN(C(=S)Nc3ccccc3)C1)C2 | 0.878 |
| Cc1ccc2c(CNCc3ccc(C)o3)c(C(=O)O)n(Cc3ccccc3F)c2c1 | 1.59 |
| O=C(Nc1cc(Cl)ccc1Cl)c1cc(Br)ccc1NS(=O)(=O)c1ccc(Cl)c([N+](=O)[O-])c1 | 0.266 |
| CCCCN(Cc1ccco1)S(=O)(=O)c1ccc(-c2ccc(O)nn2)s1 | -4.33 |
| CC1CN(C2CCSC2)CC(C)O1 (stereo not shown) | 2.99 |
| CCCCN(Cc1ccco1)C(=O)Cn1nc(Cc2ccncc2)c2ccccc2c1=O | 19 |
| Cc1cccc(OCc2nn3c(C4COc5ccccc5O4)nnc3s2)c1 (stereo not shown) | 2.89 |
| Cc1ccc(S(=O)(=O)NCCCCCC(=O)NCCc2ccccc2)cc1 | 1.12 |
| Cc1cc(OCCCCCn2ccnc2)cc(C)c1Cl | -8.79 |
| CC(C)N1CCc2nc3sc(C(=O)NCc4ccc5c(c4)OCO5)c(N)c3cc2C1 | -1.05 |
| COc1ccccc1/C(O)=C(\C#N)c1nc2ccccc2[nH]1 | 2.7 |
| COc1ccc(C2Nn3c(C)nnc3SC2C(=O)NCC2CCCO2)cc1 (stereo not shown) | -1.94 |
| Cc1cc(C)c2c3ccccc3n(C)c2n1 | -1.44 |
| Cn1c(=O)c(-c2cccc(Cl)c2)c(O)c2ccccc21 | 2.11 |
| O=C(NC1CC1)c1cc(-c2ccccc2)nc2ccccc12 | -1.5 |
| Nc1[nH]ncc1-c1ccc(OCc2ccc(Cl)cc2)cc1 | -3.96 |
| N=C(Cc1cccc2ccccc12)NOC(=O)c1cccs1 | 3.66 |
| O=c1c2ccccc2n2c(-c3ccccc3)nnc2n1CCc1ccccc1 | 1.68 |
| COc1ccc(N2C(=O)C3C4c5ccccc5C(C(=O)O)(c5ccccc54)C3C2=O)cc1 (stereo not shown) | 11.6 |
| COc1ccc(C)cc1NCc1cccc(C(F)(F)F)c1 | -9.04 |
| Cc1ccc(C)c(NCN2C(=O)C3C4C=CC(C4)C3C2=O)c1 (stereo not shown) | -4.4 |
| COc1cc(C(=O)N2CCn3c4c(c5cc(C)ccc53)CCCC42)cc(OC)c1OC (stereo not shown) | -2.18 |
| CC(C)N1CC(COc2ccccc2)OC1=O (stereo not shown) | -8.11 |
| COc1ccc(CNc2c(S(=O)(=O)c3ccc(C)cc3)cnc3ccccc23)cc1 | -10.6 |
